Results as given in the supplement of paper PMC3334620.
Whole data set: some 33,000 sequences, median “E-score (-0.5 to 0.5)” near -0.011, cut for the highest 2% near 0.28. The list shows a part of the results.

What follows are sequences tested against T1, Gcr1 (UniProt P07261) (assay: PBM E-score (8-mer binding enrichment) (E-score (-0.5 to 0.5)); higher = stronger / more preferred TF binding; most listed sequences are background and not binding sites). Details: protein concentration: 100 nM; construct: GST-full length.
T1 sequence: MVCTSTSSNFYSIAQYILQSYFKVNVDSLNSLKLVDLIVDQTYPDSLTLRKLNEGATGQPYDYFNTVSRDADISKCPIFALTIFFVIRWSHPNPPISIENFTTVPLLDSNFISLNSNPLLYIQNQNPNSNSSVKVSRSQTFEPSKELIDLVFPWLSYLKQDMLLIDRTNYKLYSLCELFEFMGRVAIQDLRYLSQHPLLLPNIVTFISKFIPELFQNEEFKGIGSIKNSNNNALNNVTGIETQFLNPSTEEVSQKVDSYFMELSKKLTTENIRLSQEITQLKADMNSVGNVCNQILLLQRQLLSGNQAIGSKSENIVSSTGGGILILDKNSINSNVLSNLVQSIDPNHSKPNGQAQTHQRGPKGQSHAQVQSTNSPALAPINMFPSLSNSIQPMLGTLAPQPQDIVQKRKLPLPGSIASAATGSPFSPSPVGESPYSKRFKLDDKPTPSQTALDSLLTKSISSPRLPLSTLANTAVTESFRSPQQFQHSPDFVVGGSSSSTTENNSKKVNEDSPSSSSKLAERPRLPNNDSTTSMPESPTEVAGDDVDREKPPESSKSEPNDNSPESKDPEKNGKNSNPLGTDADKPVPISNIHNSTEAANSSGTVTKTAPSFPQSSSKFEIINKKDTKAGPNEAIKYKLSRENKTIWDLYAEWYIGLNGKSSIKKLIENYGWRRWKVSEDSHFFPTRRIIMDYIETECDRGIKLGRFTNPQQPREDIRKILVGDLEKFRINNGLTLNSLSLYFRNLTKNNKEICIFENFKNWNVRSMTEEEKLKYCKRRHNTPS
In short: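 Yeast transcription factors, full-length or as DNA-binding domains, were expressed with a GST tag using PURExpress in vitro transcription/translation. At about 100-200 nM they were applied to universal all-10-mer Agilent arrays, double-stranded by primer extension on fresh or once-stripped slides. Fluorescent anti-GST detected bound protein, and masliner normalised the scans. E-scores for ungapped eight-base words, pooled with reverse complements, came from the Universal PBM Analysis Suite.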

Sequence	PBM E-score
CCACTGTC	0.0267
CTCACATC	-0.0648
CCCAAAGG	-0.138
AGATAAGC	0.0314
CGTAAGTA	0.0448
ATTTCGCA	0.0698
AAGGTCTG	-0.0336
CCAATTCG	0.0513
AGTAAGCC	-0.118
CCACTACA	0.194
CATTGCTA	-0.0517
CCTCTTAA	-0.134
ACAAGTAG	0.185
AACTCTAC	-0.0207
AGGGAGAA	-0.113
CAACCAAA	0.313
ACTCTATA	-0.0199
CATCGTAA	-0.0596
GGTCATCA	-0.22
ACTCACGC	-0.114
AGGTGTCC	0.184
AAGAAAGT	0.0414
AACCGTTA	-0.348
GACCCATA	0.155
GATAATGA	0.0431

Sequence	PBM E-score
AAATGCGC	0.0318
GTGCAATA	0.128
AGACAATG	0.0145
AACAGGAC	0.162
AACCGCCG	0.00829
AGTAAAGC	-0.165
TCCTTTCA	0.0522
ACGATCGG	-0.065
CCTGAGAC	-0.0674
CGCCGTTC	-0.165
GAGCTACA	0.0502
CATATATA	0.132
AGGGACCC	-0.0366
AGACCAGC	-0.027
ACTCCGTA	-0.221
CGGACGAC	-0.0334
ATATGTAA	0.115
ATAATGGG	0.326
CAAGATAA	0.032
CAAGATGA	0.0382
ACCCAAGG	-0.0329
TAACGGGA	-0.0444
TATCAGCA	0.182
ATCGACTA	0.0376
CAAGTTCG	-0.0211

Sequence	PBM E-score
CTGTAATC	-0.126
AGAGATCA	-0.25
ATCGAAAT	-0.0811
ACGGAACT	-0.249
ACCTAAAG	0.178
GTCAAGAC	-0.167
CCAAACCG	-0.187
ATGCGCCA	-0.0816
AGACGTTC	-0.0127
ATCTGGGC	0.11
ATTCTGCA	0.045
GCTCCGAC	-0.0658
AGCGCGAT	0.0213
ATTGTGGG	0.166
GCAGTCCA	0.0322
ACGGTTCC	0.0629
GACCGCAC	-0.00683
CTTATCGC	0.0894
TGGCACCA	0.321
CTAATGCA	-0.11
ATAAACCG	-0.241
CACGTCTC	-0.0829
GGGCGCCC	0.459
CGTCGGAG	-0.0234
CATGCTAA	-0.0114

Sequence	PBM E-score
GACGCTCC	0.278
GTAGCCGA	0.123
CACCTGCA	-0.222
ACAGACGC	0.227
ACCCTTTC	-0.208
GAACGTGA	-0.256
GCCTCGTA	0.0832
GAATAACC	0.0068
ATGCTGAG	-0.0367
CAACGCAG	-0.0728
AACCGACC	-0.208
ACACACGG	0.065
GCCTGAAA	0.111
GCGCACCC	-0.0278
AGCGATGA	0.0633
ATGAGAAA	0.0875
TAAGACGA	-0.189
CAGGTTTA	0.127
CCGCCTGA	0.0374
ATGAGCAT	-0.269
ACTGGTCT	0.0339
CGCAGTTA	0.15
AATAAGCC	-0.0577
CGGGACCG	-0.00477
GAATCACC	-0.12

Sequence	PBM E-score
GTATCGCA	-0.00444
CCCGCACG	-0.0595
ACCTAGGT	-0.0409
AGTGAAAA	0.0932
CCGCTGAC	0.0129
CAGATATC	-0.0224
ACGGTGCC	0.276
ACAAAGTC	-0.195
AGTGTCAA	-0.0244
ACTAGACT	-0.00689
GATTACCA	-0.04
AAAGTAGT	-0.0261
CATTAGGG	0.0812
AGACGCCT	0.327
ACGTAGTG	0.0731
AGAAACAG	0.0922
CAGAGTGG	0.0919
ATCCCAAA	0.275
TCAATCGA	-0.0191
CCTACTAC	-0.0926
ATTGCCCC	-0.111
CCAGGCCC	-0.171
AACTACTA	0.288
GCGTCAGA	-0.0739
GCCGATTA	0.0443

Sequence	PBM E-score
ACATCACA	-0.173
CTGACAAG	-0.0579
GGAACCCC	0.394
CTGTCAAG	0.0757
CCTCAAAA	0.195
GCTTTACC	-0.157
ATGAGTAC	0.0538
CCTAGGTC	-0.17
CCTCGTAC	0.0467
AACTTTTA	0.249
TAACTGGA	0.225
GCCGTGCA	-0.047
GGCCTACC	-0.171
ATCAAAAG	0.0248
AGGCCAGG	-0.25
CTAATATA	0.132
AAGACGCC	0.349
AACTTACG	0.0758
CAGGAAAC	0.0542
GTACTATA	-0.0299
CCGAGACC	0.125
TTAATCAA	-0.0296
AAATCCGG	0.00044
GGGAAACC	0.165
GAACCGAA	0.0422

Sequence	PBM E-score
GTGAAAAC	-0.0762
AGCGAAGC	-0.0655
CAAAAGCA	0.0707
AAGTTGAC	0.0421
GGAGCAAC	-0.122
ACAGCGCT	-0.114
CATCACCC	0.064
CGAGGGGA	-0.0334
CGTTAATC	0.023
ATCCCCCG	0.175
CTAAACAA	0.124
ACCAACCT	-0.0617
GGTGATAA	0.139
CGGGGCTC	-0.109
AGGTAAAT	0.1
CCACTTGA	0.138
ACAGTCTA	-0.103
TAGCACTA	0.152
GGTCAGTA	-0.203
GGATGCCA	0.454
GGGAATAC	-0.0454
GCTATTAC	0.0485
ATTCATCG	-0.166
ACACTGAG	-0.126
CGTGCCGC	-0.241

Sequence	PBM E-score
ACTTGAAG	-0.066
CAAAACGG	0.0262
AAACCGAC	-0.0881
GCTCTTCC	-0.111
CCTAACCG	-0.00312
ATCTCTGA	-0.0114
AAAGTGGT	0.167
ACACATAC	-0.0338
ATCAAGCC	-0.179
CTAAATGA	0.0742
CCGCGGGC	-0.0944
AAGCCCTC	-0.0243
TCATAAAA	0.0118
ACGGAATG	0.0972
AGCGGTTC	0.069
ACACCTAA	0.0466
CCAGTGTC	-0.124
GGACTGAA	-0.175
AATCCGAT	0.0605
CAGAAACA	0.121
GCAAACTA	0.0887
ATTGGTAA	0.0893
GCGTGGCC	-0.164
AGCGATGC	-0.287
AAACCAGA	0.0613

Sequence	PBM E-score
ACGGGGAA	-0.0966
AACACCCT	0.0941
ACAGATGA	0.0106
CTTCATCC	-0.101
CGGCCTTA	-0.152
ACAAGTGC	-0.149
CTCGAGCA	-0.0607
AGAATCAT	-0.178
CGCCTGTC	-0.105
CAGTCAGG	-0.0592
CAAGAGAG	-0.0666
GAAATATA	0.125
ATCACTGA	0.0727
CTACTGCA	-0.116
ATCGTCAG	-0.142
GCCGTACC	-0.107
ACGAAATA	0.0201
CAGGCCGG	-0.251
GTCGAGGA	-0.16
ACCATGCC	0.00147
AACCACAG	-0.114
TAGATACA	-0.00219
AAGGCGTC	0.165
CTGTAAAG	0.0144
CATGCGAA	0.139

Sequence	PBM E-score
CCCTCATC	-0.0318
CCTGCCCA	-0.178
CCGTGGAG	-0.117
CAGTCCGA	-0.131
AATAGACG	0.286
ATTGTGAG	-0.17
ACGCCAAT	0.0703
CCTCGCAG	-0.161
ACGTCATA	-0.0778
CCTATAGC	-0.0383
CTTAGGTC	-0.00353
ATCCCACG	0.0222
AGCATACG	-0.188
CGCTCAGA	0.155
CCTTCGGA	0.0526
AACTGCCA	0.136
AGCGCATA	-0.0791
CTCACTAA	-0.193
CCGTCAGC	-0.182
ACCATCAA	-0.00248
CTAATATC	0.0746
GCCAGATA	0.0103
AACGGTCA	-0.0326
GCAGGGCC	-0.0699
CATGGGAC	-0.0763

Sequence	PBM E-score
GCACAGTA	-0.0105
CGACTTTC	-0.0428
AATACCGG	0.254
GCAAGAAA	0.0798
ATCGTATC	0.0732
AACTGCCG	-0.00624
CGCAAGAA	0.155
CCGAGACG	-0.0437
CGCCGCTA	0.0386
AGTGCCCA	0.0254
TAAAGCTA	0.0575
GATGGCAA	0.0367
GGACGGAC	-0.0721
AGTCCTTG	-0.159
CGTGAAGA	-0.154
CTGGACGC	0.412
GAATATCA	-0.0967
AGGACCGG	-0.22
GGACCGGA	-0.00546
TAACACTA	0.0834
ACCGGGAG	0.113
ATGTCTCC	-0.0483
ACCAAAAC	0.087
ATGGACGA	0.0454
GCTCTAGA	-0.0648

Sequence	PBM E-score
CTACTTGA	-0.0652
ATGTGGAC	0.0114
ATAAGATC	-0.00262
CACAACCG	0.0627
CAGATCCC	0.156
CCTTCTTA	0.053
GGCAGCCA	0.422
ACCGCCAA	-0.0843
AGGAACTG	0.077
CATTCTTA	-0.0289
ATGTTGTG	-0.0505
ACCGGCGC	0.0222
CTGTTACC	-0.148
GCGTAGAC	-0.25
TCGACCAA	-0.347
GTGGCGTA	-0.0888
TATTCCAA	0.224
TGAGATAA	0.0929
GTGGAATA	0.051
ACTCCGCG	-0.0906
GACGAGCA	-0.0479
ACGACAGA	0.124
CGCCAAAA	0.113
ACTTCGAC	-0.0575
CATGCTGG	-0.137

Sequence	PBM E-score
ATCCAAGA	0.138
CTCTGATC	-0.199
ATATGTTC	-0.0761
GGTATGAC	-0.272
CCTCTGAA	0.0419
CCTCGTCC	-0.0638
CCGTGCTC	-0.126
AAGCCGAT	-0.0786
GGCCCAGA	-0.0885
ATAATCAC	-0.0298
TTACAAAA	0.159
CCAGTGCA	0.212
AGCAACAT	-0.0291
CCGAGCTC	0.00959
AAACCACC	0.0521
CCTGCGGC	-0.0454
ACTACCCA	-0.135
CCCCGGGA	0.0413
AGAAGATC	0.0201
AGCCTAAC	-0.0701
AGTGGCCC	0.0072
CAATCCGA	-0.0306
GCCCCACC	0.231
AAAGAATG	0.129
AACCTCCT	0.0152

Sequence	PBM E-score
GACCTGGA	-0.164
ACATAAAT	0.117
CAGTCGAG	-0.124
GGACTAAC	-0.157
AGGTCATA	-0.117
AACAACGT	-0.15
GCACAGCA	-0.0605
CCGGAGTA	-0.118
CATACCAA	-0.0378
CTGCGTTC	0.0949
AGACGATC	-0.203
ACTGGGAC	-0.054
GCACAGAA	-0.0512
ACGTGCCA	-0.122
GGACCGTA	-0.0641
ATCGTCTG	-0.0101
CCCGCGGG	0.0784
AAGTTTCA	0.115
CGCACACA	-0.194
